For 42 sequences, binding signal results are on record in paper PMC7819943, “Rice protein-binding microarrays: a tool to detect cis-acting elements near promoter regions in rice”.

This is one part of the list.

This assay has as its target T1, OsWOX13 (Oryza sativa, UniProt Q5QMM3 1-267).
T1 sequence: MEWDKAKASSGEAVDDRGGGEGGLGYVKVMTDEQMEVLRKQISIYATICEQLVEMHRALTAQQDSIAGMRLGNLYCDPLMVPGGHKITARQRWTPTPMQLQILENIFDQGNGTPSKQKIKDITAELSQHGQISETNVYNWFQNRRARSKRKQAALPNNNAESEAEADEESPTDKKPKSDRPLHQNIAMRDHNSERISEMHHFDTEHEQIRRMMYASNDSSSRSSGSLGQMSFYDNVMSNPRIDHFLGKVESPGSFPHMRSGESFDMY
Nature of the assay: protein-binding microarray (RPBM); PBS, 2% BSA, 51.3 ng/ul salmon testes DNA, 50 uM zinc acetate, 200 nM TF, 25 C, 1 h; high values mean tight binding. The note with it: protein: recombinant; tags: N-terminal polyhistidine and DsRed monomer fusion (pET32a); label: CyDye5-dUTP incorporated in the synthesized complementary strand; 3' TTTTT single-stranded linker to array surface; dsDNA, one strand shown. A digest of the protocol: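 Binding signal is reported as fluorescence intensity per feature (arbitrary units) from an Axon 4000B scanner. Incubation used 200 nM of each Ni–NTA-purified, N-terminally polyhistidine- and DsRed-fused transcription factor from E. coli BL21-CodonPlus on a double-stranded custom Agilent array for 1 h at 25 °C, with 50 µM zinc acetate in the buffer, followed by washing.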
In the case of “AGATCAAATTTATTGGTGTATATTTGTCTGTATCATCCTACGGAGTCACCTAGTGCAG”, the binding signal is 4630 fluorescence intensity (a.u.).

“TATATCTGATTTGTATTAGAATTATTTATGATCAAAGTTCCGGAGTCACCTAGTGCAG”: the binding signal is 9680 fluorescence intensity (a.u.).

Consider “TCCGATTGGATCAGCTATCCAATTTTGATGGGCCATTCGGCGGAGTCACCTAGTGCAG”, for which the binding signal is 6840 fluorescence intensity (a.u.).

Consider “TCTTAACATCGATTGGTTGATGCATGCATGTACACACTTCCGGAGTCACCTAGTGCAG”, for which the binding signal is 3140 fluorescence intensity (a.u.).

Consider “TTATATTGATGTTAATGAATCTAGACATATCTAGATTCATCGGAGTCACCTAGTGCAG”, for which the binding signal is 14400 fluorescence intensity (a.u.).

Turning to “TATTTAACTGGTAATTGGTCATAACCAAAGTACATAGATTCGGAGTCACCTAGTGCAG”, the binding signal was 21000 fluorescence intensity (a.u.).

In the case of “TAAGTTAATTTTGTTCCGTATGATTACAGTGACGGAATAGCGGAGTCACCTAGTGCAG”, the binding signal is 17100 fluorescence intensity (a.u.).

For the sequence “ACTAGATAGATACCATGAAGAAATATAGTCTCAGAAACCACGGAGTCACCTAGTGCAG”, the binding signal was 3570 fluorescence intensity (a.u.).

With “AATGTTGAAGATAATGGCAGGACCTAGTAACTGGTGCAAACGGAGTCACCTAGTGCAG”, the binding signal was 4820 fluorescence intensity (a.u.).

Turning to “TTCATGTAAATTGTAGTGCTAATGAGATGCTCATCTGTTGCGGAGTCACCTAGTGCAG”, the binding signal was 4730 fluorescence intensity (a.u.).

“TCTGATAGAATGTAAGCCACTCCATTCCATTCCATCCCATCGGAGTCACCTAGTGCAG”: the binding signal was 33000 fluorescence intensity (a.u.).

Consider “TTTCATAATAGATGAAGAATAAATAAGATTGGTAGAGAAGCGGAGTCACCTAGTGCAG”, for which the binding signal is 7440 fluorescence intensity (a.u.).

“GCTAATTTGGGCACCATATTGGGCCTGATTTTGGTAAACACGGAGTCACCTAGTGCAG”: the binding signal is 6980 fluorescence intensity (a.u.).

For “AGGATGATTAAGAATAAAACATTCGGCCTCGTGGCTATGTCGGAGTCACCTAGTGCAG”, the binding signal was 17300 fluorescence intensity (a.u.).

Regarding “ATTTGAAAATTGATTTGAGGACAGGGAATAGAGGTAGCATCGGAGTCACCTAGTGCAG”, the binding signal was 18800 fluorescence intensity (a.u.).

As to “ACTTAAACTGTGAATTTGCTGGCAGTGGCTAGAAGCTATTCGGAGTCACCTAGTGCAG”, the binding signal is 7540 fluorescence intensity (a.u.).

Regarding “AAATTACAAAACTTAAATTGCAATTTTACAAGCTCACACGCGGAGTCACCTAGTGCAG”, the binding signal was 7820 fluorescence intensity (a.u.).

On to “AAATTGAAAACCACTAGTTAATTAGACTAAGCTACTACCTCGGAGTCACCTAGTGCAG”, for which the binding signal was 3580 fluorescence intensity (a.u.).

Take “TGCTTGCGCGTGTATCTATCAATCAAGGGTTGGTAGCTAGCGGAGTCACCTAGTGCAG”: the binding signal is 6620 fluorescence intensity (a.u.).

Consider “CCCCACCAATCACCGCAGCTAGAACTCCCTCCGTCCCGTTCGGAGTCACCTAGTGCAG”, for which the binding signal is 11600 fluorescence intensity (a.u.).

Regarding “ACAGCCTTGATTACGACCCCGGGCCCAATTAATCAACCCACGGAGTCACCTAGTGCAG”, the binding signal is 17100 fluorescence intensity (a.u.).

For “TATTAGATTGATCTCTAAATGTCAGATTAATCTCTCTTGGCGGAGTCACCTAGTGCAG”, the binding signal is 34000 fluorescence intensity (a.u.).

Turning to “GTAATTATAATAATGAGTTACTGATCGAGAGGAGGAGAGGCGGAGTCACCTAGTGCAG”, the binding signal was 7580 fluorescence intensity (a.u.).

Regarding “CACAAAATCAAGCTATCAACATTCCTCATCTCGTTGATGCCGGAGTCACCTAGTGCAG”, the binding signal was 3680 fluorescence intensity (a.u.).

As for “AAATTAAAATTAATTTATAAGTAAAACTTTTGTAGATTTGCGGAGTCACCTAGTGCAG”, the binding signal was 30300 fluorescence intensity (a.u.).

Turning to “TCTGATTGGTACATGCTCACCTGGTTGGCTGGTTCTTCAGCGGAGTCACCTAGTGCAG”, the binding signal was 53800 fluorescence intensity (a.u.).

Regarding “CAGAAATAAACTAGTTTATTTTCTGGATTAACTATATATTCGGAGTCACCTAGTGCAG”, the binding signal is 5890 fluorescence intensity (a.u.).

In the case of “GGTCATTTATAAATTAAATTTTAGGCTTGGGAGGAGAACTCGGAGTCACCTAGTGCAG”, the binding signal was 14800 fluorescence intensity (a.u.).

For “ACTTAATATATTCACTTAACACTACAAAGTCTTGTGGTGTCGGAGTCACCTAGTGCAG”, the binding signal was 3610 fluorescence intensity (a.u.).

As to “ATCTAACTTATATAGAGATTATAACGTAGTTACACTACAGCGGAGTCACCTAGTGCAG”, the binding signal was 3550 fluorescence intensity (a.u.).

For the sequence “ATTATACTGATGGACTATGATATATTACCTTGAGATGAGGCGGAGTCACCTAGTGCAG”, the binding signal is 9420 fluorescence intensity (a.u.).

Take “CTCAAGCCATCACAACTTAATTAAGCAGCAGCATTAGCAGCGGAGTCACCTAGTGCAG”: the binding signal was 5540 fluorescence intensity (a.u.).

Turning to “TTAGTAAAACAATTAAATAGATATATATCTTTGACAACTTCGGAGTCACCTAGTGCAG”, the binding signal is 3710 fluorescence intensity (a.u.).

In the case of “GGCTTATAATTTGTTATTATAGCTGCTCTCAGGGGACAGTCGGAGTCACCTAGTGCAG”, the binding signal was 12900 fluorescence intensity (a.u.).

Take “ATTTCTAGAAATTGATAGTTAAAGATAGAAATGTTTTACTCGGAGTCACCTAGTGCAG”: the binding signal is 5490 fluorescence intensity (a.u.).

Take “CATATTGACATGCACATTTGCTTCACGGTCAAGACTTGAGCGGAGTCACCTAGTGCAG”: the binding signal is 9690 fluorescence intensity (a.u.).

Take “AATACTAAATAGTTGAATTGATAAATATGTACAGTTATTGCGGAGTCACCTAGTGCAG”: the binding signal is 4330 fluorescence intensity (a.u.).

As to “TTAAATTATATTAAACGGCATATTTCATGAGAAAATTTATCGGAGTCACCTAGTGCAG”, the binding signal is 7900 fluorescence intensity (a.u.).

Turning to “TGGTGTGATTATGGTGAATAAGAGCAACGACCGGCTTCGGCGGAGTCACCTAGTGCAG”, the binding signal was 12800 fluorescence intensity (a.u.).

For “AAAATAAATAAAATCATTTCCTTGCTAAAATTGAAAGCAACGGAGTCACCTAGTGCAG”, the binding signal was 4560 fluorescence intensity (a.u.).

Turning to “AGAAATTGTGTGATTTATTGTAGTGTGTAGAAATTTATAGCGGAGTCACCTAGTGCAG”, the binding signal is 11700 fluorescence intensity (a.u.).

As to “TTAATCGCCAAATTATCCTAATCAATCCAAGGGAGAGAGTCGGAGTCACCTAGTGCAG”, the binding signal is 12000 fluorescence intensity (a.u.).
